Data: patent publication US20260306644A1, “ANTIBODY RECRUITING MOLECULES FOR THE TREATMENT OF CORONAVIRUS DISEASE-19” (priority 2023, published 2026)
Positions of bridges follow the written chain, without caps; N, C: chain ends. Non-standard residues stand in square brackets, D forms with d. No end group written: not given here. Tic = O=C(O)[C@@H]1Cc2ccccc2CN1; Aib = CC(C)(N)C(=O)O

Biological target: SARS-CoV-2 Spike glycoprotein Receptor Binding Domain (RBD) (Severe acute respiratory syndrome coronavirus 2, UniProt P0DTC2)
Test: Ligand binding to SARS-CoV-2 Spike glycoprotein Receptor Binding Domain (RBD) by BLI
Conditions: biotinylated Spike RBD; for Kd: unit pM printed in cell, read-out: Octet SARS-CoV-2 Spike RBD Protein Binding KD (cell printed in pM); for Octet SARS-CoV-2 Spike RBD Protein Binding KD: 1:1 global fit

CCCC[C@H](NC(=O)[C@H](CCC(=O)O)NC(=O)[C@H](CC(=O)O)NC(=O)[C@H](CC(C)C)NC(=O)[C@H](CC(C)C)NC(=O)[C@H](CCCNC(=N)N)NC(=O)[C@H](CCSC)NC(=O)[C@@H](NC(=O)[C@H](CCC(=O)O)NC(=O)[C@H](Cc1ccc(O)cc1)NC(=O)[C@@H](NC(=O)[C@H](CCCCN)NC(=O)[C@H](CCC(N)=O)NC(=O)[C@H](CC(C)C)NC(=O)[C@@H](NC(=O)[C@H](Cc1c[nH]c2ccccc12)NC(=O)[C@H](CCC(=O)O)NC(=O)[C@H](CCCCN)NC(=O)[C@H](CC(=O)O)NC(C)=O)[C@@H](C)CC)[C@@H](C)CC)[C@@H](C)CC)C(=O)N[C@H](Cc1c[nH]cn1)C(=O)N[C@@H](Cc1c[nH]cn1)C(=O)N[C@@H](C)C(=O)N[C@@H](CCC(=O)O)C(=O)N[C@@H](C)C(=O)N[C@@H](CO)C(=O)N[C@@H](CCSC)C(=O)N[C@@H](CCCNC(=N)N)C(=O)N[C@H](C(=O)N[C@@H](CO)C(=O)N[C@@H](CC(=O)O)C(=O)N[C@@H](CC(C)C)C(=O)N[C@H](C(=O)N[C@@H](Cc1ccc(O)cc1)C(=O)N[C@@H](CCC(=O)O)C(=O)N[C@@H](Cc1ccccc1)C(=O)N[C@@H](CCSC)C(=O)N[C@@H](CCCCN)C(=O)N[C@@H](CCCCN)C(=O)NCC(=O)O)[C@@H](C)CC)C(C)C [Compound 240]
Kd: < 1 pM

{CH2CO}-ASYHLGELVW[Tic][Aib]C[dE]ILQKIYEIMRLLDELGHAEASMRVSDLIYEFMKK (thioether N-13) [Compound 131]
Octet SARS-CoV-2 Spike RBD Protein Binding KD: Weak Binding

AEASMRVSDLIYEFMKKGDERLLEEAERLLEEVER [Compound 210]
Octet SARS-CoV-2 Spike RBD Protein Binding KD: No Binding

CC[C@H](C)[C@H](NC(=O)[C@H](CC(C)C)NC(=O)[C@H](CC(=O)O)NC(=O)[C@H](CO)NC(=O)[C@@H](NC(=O)[C@H](CCCNC(=N)N)NC(=O)[C@H](CCSC)NC(=O)[C@H](CO)NC(=O)[C@H](C)NC(=O)[C@H](CCC(=O)O)NC(=O)[C@H](C)NC(=O)[C@H](Cc1c[nH]cn1)NC(=O)CNC(=O)[C@H](CC(C)C)NC(=O)[C@H](CCC(=O)O)NC(=O)[C@H](CC(=O)O)NC(=O)[C@H](CC(C)C)NC(=O)[C@H](CC(C)C)NC(=O)[C@H](CCCNC(=N)N)NC(=O)[C@H](CCSC)NC(=O)[C@@H](NC(=O)[C@H](CCC(=O)O)NC(=O)[C@H](Cc1ccc(O)cc1)NC(=O)[C@@H](NC(=O)[C@H](CCCCN)NC(=O)[C@H](CCC(N)=O)NC(=O)[C@H](CC(C)C)NC(=O)[C@@H](NC(=O)[C@H](Cc1c[nH]c2ccccc12)NC(=O)[C@H](CCC(=O)O)NC(=O)[C@H](CCCCN)NC(=O)[C@@H](N)CC(=O)O)[C@@H](C)CC)[C@@H](C)CC)[C@@H](C)CC)C(C)C)C(=O)N[C@@H](Cc1ccc(O)cc1)C(=O)N[C@@H](CCC(=O)O)C(=O)N[C@@H](Cc1ccccc1)C(=O)N[C@@H](CCSC)C(=O)N[C@@H](CCCCN)C(=O)N[C@@H](CCCCN)C(=O)NCC(=O)N[C@@H](CCC(N)=O)C(=O)N[C@@H](C)C(=O)N1CCC[C@H]1C(=O)N[C@@H](CC(=O)O)C(=O)N[C@H]1CSSC[C@@H](C(=O)N[C@H](C(=O)O)[C@@H](C)O)NC(=O)[C@H](Cc2c[nH]c3ccccc23)NC(=O)[C@H](C(C)C)NC(=O)[C@H](CC(C)C)NC(=O)[C@H](CCC(=O)O)NC(=O)CNC(=O)[C@H](CC(C)C)NC(=O)[C@H](Cc2c[nH]cn2)NC(=O)[C@H](Cc2c[nH]c3ccccc23)NC(=O)[C@H](C)NC1=O [Compound 108]
Kd: < 1 pM
